# Reference: PubChem BioAssay AID485294 (National Center for Advancing Translational Sciences (NCATS), 2010)
# Hit rate of the full screen: of about 370,000 compounds, about 150 (0.041%) were called active. This list was built around the results that the source calls inconclusive (neither active nor inactive); the mix of calls is not that of the screen. Calls come from the whole dose curve; as a rule, active = well fitted inhibition curve with a large enough effect; inconclusive = small, poorly fitted or top-dose-only effect; inactive = flat fitted curve, though single readings scatter. No potency is given beside an inconclusive call; the fits are too rough.
# Molecular target: Beta-lactamase (Escherichia coli (strain K12)) (UniProt P00811)
# UniProt P00811, sequence (P00811 whole entry, looked up): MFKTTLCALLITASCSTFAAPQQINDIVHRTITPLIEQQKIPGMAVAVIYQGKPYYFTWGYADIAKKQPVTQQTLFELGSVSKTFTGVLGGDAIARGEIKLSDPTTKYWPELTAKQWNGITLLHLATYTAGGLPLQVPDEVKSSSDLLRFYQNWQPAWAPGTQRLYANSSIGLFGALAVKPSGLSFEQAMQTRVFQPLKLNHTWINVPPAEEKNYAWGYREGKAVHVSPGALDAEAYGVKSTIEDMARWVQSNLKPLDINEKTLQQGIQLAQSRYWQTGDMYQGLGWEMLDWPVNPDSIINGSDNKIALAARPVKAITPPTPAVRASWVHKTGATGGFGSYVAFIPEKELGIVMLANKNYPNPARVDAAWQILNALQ
# Assay: qHTS Inhibitors of AmpC Beta-Lactamase (assay with detergent); note: nearly all actives have a fitted effect of over 25% in size
# Details: AmpC hydrolysis of nitrocefin, absorbance 480 nm, 0.01% Triton; series mostly up to 114 µM
# Protocol: NIH Molecular Libraries Probe Production Network [MLPCN] NIH Chemical Genomics Center [NCGC] Assay Provider: Professor Brian Shoichet, UCSF Assay Overview: This aggregation profiling approach exploits the sensitivity of aggregate formation to detergent. Inhibition of b-lactamase is measured in the presence and absence of 0.01% Triton X-100. This particular assay had the prescence of 0.01% Triton X-100. See Pubchem assay "Promiscuous and Specific Inhibitors of AmpC Beta-Lactamase (assay without detergent)" for related screen. Compounds that inhibit only in the absence of detergent are considered likely promiscuous aggregators. A screen of 1,030 compounds was performed in Brian Shoichet's lab in 96-well format. AmpC activity was measured by following the absorbance at 480 nm. Nitrocefin is a chromogenic substrate: while nitrocefin is yellow (lmax 390 nm), the product of its hydrolysis is red (lmax 486 nm, 17,000 M-1). AmpC beta lactamase was provided by Shoichet Lab, UCSF.
# Buffer: 20 mM phosphate buffer, pH 7.0 Triton X-100: No Detergent screen: 0.0001%, Detergent screen: 0.01%. Reagents/Controls: Buffer in columns 3 and 4 as negative control (no enzyme). 5.3 nM AmpC in columns 1, 2, 5-48. Titration of UCSF compound 9 control (from 10 mM, then 1:2) pin-transferred to column 2. Column 1 is neutral (100% activity). Assay Steps: Six uL of reagents were dispensed to 1536-well Greiner black clear bottom plates. Compounds and controls (23 nL) were transferred via Kalypsys PinTool. The plates were incubated for 15 min at room temperature, and then 2 uL of 800 uM solution of nitrocefin was added to start the reaction. The plates were immediately transferred to and read every 20 seconds for 4 min on ViewLux (Perkin-Elmer) High-throughput CCD imager using 480 nm absorbance protocol. During dispense, reagent bottles were kept submerged into 4 deg C water bath. Keywords: NIH Roadmap, MLSCN, MLI, MLSMR, qHTS, NCGC, AmpC Beta-Lactamase, Aggregation
# Potency is the fitted concentration of half-maximal effect; tags give direction and shape of the fitted curve.
row,Structure (SMILES),Potency
1,O=C(NCC(=O)N(Cc1ccccc1)C(C(=O)NCC1CCCO1)c1ccccc1)c1ccco1 (stereo unspecified),inactive
2,Cc1cccc(OCC(=O)Nc2ccc3c(c2)nc2n3CCOC2)c1,"inconclusive [inhibitor, full curve, poor fit]"
3,O/N=C1/CCCCC1c1ccccn1 (stereo unspecified),"inconclusive [inhibitor, partial curve, poor fit]"
4,CCNS(=O)(=O)c1ccc(S(=O)(=O)N(Cc2ccccn2)C2CCCCC2)cc1,"inconclusive [inhibitor, full curve, poor fit]"
5,COc1ccc(C(CNC(=O)c2cccc([N+](=O)[O-])c2)N2CCOCC2)cc1 (stereo unspecified),inactive
6,C=CCSc1nnc(NC(=O)CSc2ccccn2)s1,"inconclusive [inhibitor, full curve, poor fit]"
7,CN(CC(=O)NCC(c1ccccc1)N1CCCC1)S(=O)(=O)c1ccc(Cl)cc1 (stereo unspecified),"inconclusive [inhibitor, partial curve]"
8,O=C1CN(C(=O)c2cc3ccccc3oc2=O)C(c2ccc(F)cc2)c2cc(Br)ccc2N1 (stereo unspecified),"inconclusive [inhibitor, full curve, poor fit]"
9,Cc1cccc(NC(=O)C2CCN(S(=O)(=O)c3cccc4cccnc34)CC2)n1,"inconclusive [inhibitor, full curve, poor fit]"
10,Cc1cccc(OCc2nnc(SCC(=O)Nc3cccc(C(=O)N4CCOCC4)c3)o2)c1C,"inconclusive [inhibitor, partial curve]"
11,Cc1ccc2c(c1)sc[n+]2Cc1ccccc1,inactive
12,Cc1cc(C)c2c(N)c(C(=O)NC3CCCC3)sc2n1,inactive
13,O=C(Oc1nsnc1N1CCOCC1)N1CCOCC1,"inconclusive [inhibitor, full curve, poor fit]"
14,O=C(CCC(=O)Nc1nnc(C2CCCCC2)s1)NCC1CCCO1 (stereo unspecified),"inconclusive [inhibitor, full curve, poor fit]"
15,CC(C)(C)C(=O)C(Oc1cccc2nonc12)n1cncn1 (stereo unspecified),"inconclusive [inhibitor, partial curve, poor fit]"
16,COc1ccccc1NS(=O)(=O)c1ccc(C)c(C(=O)NCCCN2CCCC2=O)c1,"inconclusive [inhibitor, single point]"
17,CCOc1ccc(NC(=O)N2C[C@H]3C[C@@H](C2)c2cccc(=O)n2C3)cc1,"inconclusive [inhibitor, single point]"
18,O=c1c2c(O)cc(O)cc2oc2ccc(O)c(O[C@@H]3O[C@H](CO)[C@@H](O)[C@H](O)[C@H]3O[C@H]3O[C@H](CO)[C@@H](O)[C@H](O)[C@H]3O)c12,"inconclusive [inhibitor, single point]"
19,COc1ccccc1C1(CC(=O)O)CCOC(C(C)C)C1 (stereo unspecified),inactive
20,CCCCNC(=O)OCCNC(=O)NC,"inconclusive [inhibitor, full curve, poor fit]"
21,Cc1nc(Cc2nnc(SC(C)C(=O)Nc3cccc(C#N)c3)o2)cs1 (stereo unspecified),"inconclusive [inhibitor, full curve, poor fit]"
22,O=C(c1ccc(Cl)cc1)c1ccc(CN2C(=O)c3ccccc3C2=O)o1,"inconclusive [inhibitor, full curve, poor fit]"

row,Structure (SMILES),Potency
1,C/C(=N/NC(=O)CN(c1ccccc1)S(=O)(=O)c1ccccc1)c1ccccc1O,"inconclusive [inhibitor, partial curve]"
2,COc1ccccc1NC(=O)CSc1nc2ccccc2c(=O)n1CCNC(C)=O,"inconclusive [inhibitor, partial curve]"
3,CCC(=O)Nc1ccccc1-c1nc2ccccc2n(C(C)C(=O)Nc2cccc(Cl)c2C)c1=O (stereo unspecified),inactive
4,Cc1ccc(F)cc1NC(=O)CSc1nnc(CNC(=O)c2ccco2)n1C,inactive
5,COc1ccc(N(CC(=O)NC2CCCC2)S(=O)(=O)c2c(C)[nH]c(=O)[nH]c2=O)cc1,"inconclusive [inhibitor, partial curve]"
6,Cc1cccc(-n2c(-c3csc4ccccc34)n[nH]c2=S)c1,inactive
7,CCOc1ccc(N(CC(=O)Nc2ccc(C)cc2C)S(C)(=O)=O)cc1,"inconclusive [inhibitor, partial curve]"
8,NC(=O)c1ccsc1NC(=O)CCS(=O)(=O)c1ccc(F)cc1,"inconclusive [inhibitor, full curve]"
9,O=C(CCCn1c(=O)c2ccccc2n(CC(=O)Nc2cccc(Cl)c2)c1=O)NCc1ccc2c(c1)OCO2,inactive
10,CCOc1cc(C2C(C#N)=C(N)SC(N)=C2C#N)ccc1OCCN1CCOCC1,"inconclusive [inhibitor, partial curve, poor fit]"
11,Cc1ccc(C(=O)CSc2n[nH]c(C)n2)cc1,"inconclusive [inhibitor, full curve, poor fit]"
12,Cc1c(C(N)=O)sc2ncn(CC(=O)OC(C)C)c(=O)c12,"inconclusive [inhibitor, full curve]"
13,Cc1nc(Cl)c(C(=O)NCCC(C)C)c(C)c1[N+](=O)[O-],"inconclusive [inhibitor, full curve]"
14,O=C(CSc1ccc2nnc(CCNC(=O)c3ccccc3)n2n1)NCc1ccco1,inactive
15,S=c1nc(Cc2ccc(Cl)cc2)[nH]c2ccccc12,"inconclusive [inhibitor, full curve]"
16,O=C(CSc1nnc(Cc2cccs2)n1Cc1ccco1)Nc1ccc(Br)cc1,inactive
17,CC1CCCCC1NC(=O)c1cccc(N2C(=O)C3C4C=CC(C4)C3C2=O)c1 (stereo unspecified),"inconclusive [inhibitor, full curve, poor fit]"
18,c1ccc2c(CNC3CCCCC3)c[nH]c2c1,"inconclusive [inhibitor, full curve]"
19,O=C1C(Cl)=C(N2CCOCC2)C(=O)N1c1ccc(Br)cc1,"inconclusive [inhibitor, full curve]"
20,O=S(=O)(CCc1nc2ccccc2o1)c1ccc2ccccc2c1,inactive
21,COC(=O)c1cccc(N(C(=O)c2cnccn2)C(C(=O)NC2CCCCC2)c2cn(C)nc2C)c1 (stereo unspecified),"inconclusive [inhibitor, full curve, poor fit]"
22,CCOC(=O)N1CCN(C(=O)Nc2sc3nc4n(c(=O)c3c2C)CCC(C)CC4)CC1 (stereo unspecified),inactive

row,Structure (SMILES),Potency
1,C/C(=N\NC(=O)c1ccncc1)C12CC3CC(CC(C3)C1)C2,"inconclusive [inhibitor, partial curve]"
2,COc1ccc(S(=O)(=O)N2CCOC2CNC(=O)C(=O)NCCN2CCOCC2)cc1C (stereo unspecified),"inconclusive [inhibitor, partial curve]"
3,C/C(=N/NS(=O)(=O)c1ccc(C)cc1C)c1c[nH]c2ccccc12,"inconclusive [inhibitor, partial curve, poor fit]"
4,COc1ccccc1NS(=O)(=O)c1cc(NC(=O)CC(C)(C)C)ccc1N1CCOCC1,inactive
5,CC(C)c1ccc(N2CCN(C(=O)c3ccccc3NC(=O)/C=C\C(=O)O)CC2)cc1,inactive
6,CC(=O)NC(=S)Nc1cccc([N+](=O)[O-])c1,inactive
7,CCOC(=O)c1c(-c2ccc(OC)cc2)csc1NC(=O)CNCc1ccco1,inactive
8,CCN(CC)Cc1c(O)ccc2c(C)c(CC(=O)OC)c(=O)oc12,"inconclusive [inhibitor, full curve, poor fit]"
9,CCC(C)(C(=O)NC1CCCC1)N(Cc1ccco1)C(=O)Cc1cccs1 (stereo unspecified),"inconclusive [inhibitor, partial curve, poor fit]"
10,COc1ccc(CCNC(=O)c2cc3c(s2)-c2c(C)cccc2OC3)c(OC)c1,inactive
11,COc1ccc(N2CCN(c3nc4ccccn4c(=O)c3/C=C(\C#N)S(=O)(=O)c3ccccc3)CC2)cc1,"inconclusive [inhibitor, partial curve, poor fit]"
12,CCOc1ccc(-c2cc(CCCC(=O)NCc3ccc(C)cc3)no2)cc1,"inconclusive [inhibitor, full curve, poor fit]"
13,CCOC(=O)C1CCCN(c2c(NCCCN(C)c3ccccc3)c(=O)c2=O)C1 (stereo unspecified),"inconclusive [inhibitor, full curve, poor fit]"
14,CCOC(=O)C1CCCN(S(=O)(=O)c2cc(Br)cc3c2N(C(=O)C2CC2)CC3)C1 (stereo unspecified),"inconclusive [inhibitor, full curve]"
15,COC(=O)C1CCN(S(=O)(=O)c2cc3c4c(c2)CCN4C(=O)CC3)CC1,"inconclusive [inhibitor, partial curve, poor fit]"
16,CNC(=O)Cn1nc(C)c2ccccc2c1=O,"inconclusive [inhibitor, full curve]"
17,Cc1ccc(CN2CCN(/N=C\c3cccc([N+](=O)[O-])c3)CC2)cc1,inactive
18,CCCCSc1nc2c(c(=O)[nH]c(=O)n2C)n1CCc1ccccc1,"inconclusive [inhibitor, full curve]"
19,COc1ccc2[nH]c(=O)c(CN(Cc3ccco3)Cc3nnnn3Cc3ccccc3)cc2c1,"inconclusive [inhibitor, full curve, poor fit]"
20,COc1ccc(OC)c(C2=Nn3c(nnc3-c3cc(OC)c(OC)c(OC)c3)SC2)c1,inactive
21,COc1cc(/C=N/NC(=O)CSc2ccccn2)ccc1O,inactive
22,COc1ccc(N/C=C/C(=O)c2sc(-c3ccccc3)nc2C)cc1,inactive
